# Results reported in the supplement of paper PMC8728848.
# The other results are listed elsewhere or left out.
# Tests used:
# Assay in all cases: glycan array binding signal (z-score within array); higher = stronger binding
# Details in all cases: glycan notation: IUPAC condensed, linker removed
# Gal(a1-4)Gal(b1-4)Glc = molecular target: Gal(a1-4)Gal(b1-4)Glc
# Procedure, shortened: (§1)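 Glycan array binding is given as a within-array Z-score, which can be read as non-binding when negative. The arrays, 3228 of them, came from the Consortium for Functional Glycomics database and were retained only where the protein sequence was available. Z-scores were averaged across arrays of the same protein sequence at different concentrations or buffers and across linkers.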
# Gal(a1-4)Gal(b1-4)GlcNAc = molecular target: Gal(a1-4)Gal(b1-4)GlcNAc
# Procedure, shortened: as §1
# Gal(a1-4)GlcNAc = molecular target: Gal(a1-4)GlcNAc
# Procedure, shortened: as §1
# Gal(a1-6)Glc = molecular target: Gal(a1-6)Glc
# Procedure, shortened: as §1
# Gal(b1-2)Gal = molecular target: Gal(b1-2)Gal
# Procedure, shortened: as §1
# Gal(b1-3)Gal = molecular target: Gal(b1-3)Gal
# Procedure, shortened: as §1
# Gal(b1-3)GalNAc = molecular target: Gal(b1-3)GalNAc
# Procedure, shortened: as §1
# [1] = molecular target: Gal(b1-3)GalNAc(b1-3)Gal(a1-4)Gal(b1-4)Glc
# Procedure, shortened: as §1
# [2] = molecular target: Gal(b1-3)GalNAc(b1-4)Gal(b1-4)Glc
# Procedure, shortened: as §1
# [3] = molecular target: Gal(b1-3)GalNAc(b1-4)[Neu5Ac(a2-3)]Gal(b1-4)Glc
# Procedure, shortened: as §1
# Gal(b1-3)GlcNAc = molecular target: Gal(b1-3)GlcNAc
# Procedure, shortened: as §1
# [4] = molecular target: Gal(b1-3)GlcNAc(b1-3)Gal(b1-4)Glc
# Procedure, shortened: as §1
# [5] = molecular target: Gal(b1-3)GlcNAc(b1-3)Gal(b1-4)GlcNAc
# Procedure, shortened: as §1
# [6] = molecular target: Gal(b1-3)[Fuc(a1-4)]GlcNAc
# Procedure, shortened: as §1
# [7] = molecular target: Gal(b1-3)[Fuc(a1-4)]GlcNAc(b1-3)Gal(b1-4)GlcNAc
# Procedure, shortened: as §1
# [8] = molecular target: Gal(b1-3)[Fuc(a1-4)]GlcNAc(b1-3)Gal(b1-4)[Fuc(a1-3)]GlcNAc
# Procedure, shortened: as §1
# [9] = molecular target: Gal(b1-3)[GlcNAc(b1-6)]GalNAc
# Procedure, shortened: as §1
# [10] = molecular target: Gal(b1-3)[Neu5Ac(a2-6)]GalNAc
# Procedure, shortened: as §1
# [11] = molecular target: Gal(b1-3)[Neu5Ac(a2-6)]GlcNAc(b1-6)Gal(b1-4)Glc
# Procedure, shortened: as §1
# [12] = molecular target: Gal(b1-3)[Neu5Ac(b2-6)]GalNAc
# Procedure, shortened: as §1
# [13] = molecular target: Gal(b1-4)GalNAc(a1-3)[Fuc(a1-2)]Gal(b1-4)GlcNAc
# Procedure, shortened: as §1
# [14] = molecular target: Gal(b1-4)GalNAc(b1-3)[Fuc(a1-2)]Gal(b1-4)GlcNAc
# Procedure, shortened: as §1
# Gal(b1-4)Glc = molecular target: Gal(b1-4)Glc
# Procedure, shortened: as §1
# Gal(b1-4)Glc6S = molecular target: Gal(b1-4)Glc6S
# Procedure, shortened: as §1
# Gal(b1-4)GlcNAc = molecular target: Gal(b1-4)GlcNAc
# Procedure, shortened: as §1
# [15] = molecular target: Gal(b1-4)GlcNAc(b1-2)Man(a1-3)[Gal(b1-4)GlcNAc(b1-2)Man(a1-6)]Man(b1-4)GlcNAc(b1-4)GlcNAc
# Procedure, shortened: as §1
# [16] = molecular target: Gal(b1-4)GlcNAc(b1-3)Gal(b1-4)Glc
# Procedure, shortened: as §1
# [17] = molecular target: Gal(b1-4)GlcNAc(b1-3)Gal(b1-4)GlcNAc
# Procedure, shortened: as §1
# [18] = molecular target: Gal(b1-4)GlcNAc(b1-3)Gal(b1-4)GlcNAc(b1-3)Gal(b1-4)GlcNAc
# Procedure, shortened: as §1
# [19] = molecular target: Gal(b1-4)GlcNAc(b1-3)Gal(b1-4)[Fuc(a1-3)]GlcNAc(b1-3)Gal(b1-4)[Fuc(a1-3)]GlcNAc
# Procedure, shortened: as §1
# [20] = molecular target: Gal(b1-4)GlcNAc(b1-3)GalNAc
# Procedure, shortened: as §1
# [21] = molecular target: Gal(b1-4)GlcNAc(b1-3)[Gal(b1-4)GlcNAc(b1-6)]GalNAc
# Procedure, shortened: as §1
# [22] = molecular target: Gal(b1-4)GlcNAc(b1-6)Gal(b1-4)GlcNAc(b1-6)GalNAc
# Procedure, shortened: as §1
# [23] = molecular target: Gal(b1-4)GlcNAc(b1-6)GalNAc
# Procedure, shortened: as §1
# [24] = molecular target: Gal(b1-4)GlcNAc(b1-6)[Gal(b1-3)]GalNAc
# Procedure, shortened: as §1
# Gal3S(b1-3)GalNAc = molecular target: Gal3S(b1-3)GalNAc
# Procedure, shortened: as §1
# Gal3S(b1-3)GlcNAc = molecular target: Gal3S(b1-3)GlcNAc
# Procedure, shortened: as §1
# [25] = molecular target: Gal3S(b1-3)[Fuc(a1-4)]GlcNAc
# Procedure, shortened: as §1
# Gal3S(b1-4)Glc = molecular target: Gal3S(b1-4)Glc
# Procedure, shortened: as §1
# Gal3S(b1-4)Glc6S = molecular target: Gal3S(b1-4)Glc6S
# Procedure, shortened: as §1
# Gal3S(b1-4)GlcNAc = molecular target: Gal3S(b1-4)GlcNAc
# Procedure, shortened: as §1
# Gal3S(b1-4)GlcNAc6S = molecular target: Gal3S(b1-4)GlcNAc6S
# Procedure, shortened: as §1
# Gal3S6S(b1-4)GlcNAc = molecular target: Gal3S6S(b1-4)GlcNAc
# Procedure, shortened: as §1
# Gal3S6S(b1-4)GlcNAc6S = molecular target: Gal3S6S(b1-4)GlcNAc6S
# Procedure, shortened: as §1
# Gal4S(b1-4)GlcNAc = molecular target: Gal4S(b1-4)GlcNAc
# Procedure, shortened: as §1
binder,measurement,setting,value
"F17dG (Escherichia coli), Q47199 (protein) MTNFYKVFLAVFILVCCNISQAAVSFIGSTENDVGPSPGSYSRTHAMDNLPFVYNTGNNIGYQNANVWRISKGFCVGLDGKVDLPVVGSLDGQSIYGLTEEVGLLIWMGDTNYSRGTAMSGNSWENVFSGWCVGANTASTQGLSVRVTPVILKRNSSARYSVQKTSIGSIRMRPYNGSSAGSVQTTVNFSLNPFTLNDTVTSCRLLTPSAVNVSLAAISAGQLPSSGDEVVAGTTSLKLQCDAGVTVWATLTDATTPSNRSDILTLTGASTATGVGLRIYKNTDSTPLKFGPDSPVKGNENQWQLSTGTETSPSVRLYVKYVNTGEGINPGTVNGISTFTFSYQ",glycan array binding signal (z-score),Gal(a1-4)Gal(b1-4)Glc,0.45
same,glycan array binding signal (z-score),Gal(a1-4)Gal(b1-4)GlcNAc,-0.362
same,glycan array binding signal (z-score),Gal(a1-4)GlcNAc,-0.162
same,glycan array binding signal (z-score),Gal(a1-6)Glc,-0.237
same,glycan array binding signal (z-score),Gal(b1-2)Gal,-0.316
same,glycan array binding signal (z-score),Gal(b1-3)Gal,-0.308
same,glycan array binding signal (z-score),Gal(b1-3)GalNAc,-0.155
same,glycan array binding signal (z-score),[1],-0.06
same,glycan array binding signal (z-score),[2],-0.17
same,glycan array binding signal (z-score),[3],-0.232
same,glycan array binding signal (z-score),Gal(b1-3)GlcNAc,-0.154
same,glycan array binding signal (z-score),[4],-0.334
same,glycan array binding signal (z-score),[5],-0.386
same,glycan array binding signal (z-score),[6],-0.225
same,glycan array binding signal (z-score),[7],-0.355
same,glycan array binding signal (z-score),[8],-0.374
same,glycan array binding signal (z-score),[9],0.643
same,glycan array binding signal (z-score),[10],-0.194
same,glycan array binding signal (z-score),[11],-0.262
same,glycan array binding signal (z-score),[12],-0.256
same,glycan array binding signal (z-score),[13],-0.326
same,glycan array binding signal (z-score),[14],0.215
same,glycan array binding signal (z-score),Gal(b1-4)Glc,-0.307
same,glycan array binding signal (z-score),Gal(b1-4)Glc6S,-0.312
same,glycan array binding signal (z-score),Gal(b1-4)GlcNAc,-0.338
same,glycan array binding signal (z-score),[15],-0.364
same,glycan array binding signal (z-score),[16],-0.174
same,glycan array binding signal (z-score),[17],-0.287
same,glycan array binding signal (z-score),[18],0.028
same,glycan array binding signal (z-score),[19],-0.317
same,glycan array binding signal (z-score),[20],-0.291
same,glycan array binding signal (z-score),[21],-0.336
same,glycan array binding signal (z-score),[22],-0.329
same,glycan array binding signal (z-score),[23],-0.359
same,glycan array binding signal (z-score),[24],-0.253
same,glycan array binding signal (z-score),Gal3S(b1-3)GalNAc,-0.279
same,glycan array binding signal (z-score),Gal3S(b1-3)GlcNAc,-0.335
same,glycan array binding signal (z-score),[25],-0.308
same,glycan array binding signal (z-score),Gal3S(b1-4)Glc,-0.073
same,glycan array binding signal (z-score),Gal3S(b1-4)Glc6S,-0.278
same,glycan array binding signal (z-score),Gal3S(b1-4)GlcNAc,-0.33
same,glycan array binding signal (z-score),Gal3S(b1-4)GlcNAc6S,-0.11
same,glycan array binding signal (z-score),Gal3S6S(b1-4)GlcNAc,-0.258
same,glycan array binding signal (z-score),Gal3S6S(b1-4)GlcNAc6S,0.325
same,glycan array binding signal (z-score),Gal4S(b1-4)GlcNAc,-0.315
